The values that follow come from patent US20260008856A1, “METHODS OF TREATING DISEASE USING ANTI-IL1RAP ANTIBODIES AND ANTIBODY DRUG CONJUGATES” (Bluefin Biomedicine, Inc., priority 2022, published 2026).

For experiment [1], the system named is EOL-1. Put plainly: Flow cytometry binding to endogenous cell line EOL-1. Set-up: key: (−): No binding; (+): Weak binding; (++): Moderate binding; (+++): Strong binding. In kind it is cell-based, human. Particulars: primary antibody 1 ug/ml. Here is the method:
(§1) Staining for flow cytometry was performed in 1× cold PBS with 0.5% BSA. Primary antibodies (1 ug/ml) were incubated with live cells on ice for 30 minutes, after a brief wash, cells were incubated with Alexa Fluro® 488-conjugated anti-human IgG secondary antibody @1:1000 (709-546-149, Jackson ImmunoResearch). Acquisition of the data was performed on a MACSQuant® Flow Cytometers (Miltenyi Biotec) and analyzed with FlowJo software.
Over 1,000 hits were identified that bind strongly to CHO-human IL1RAP, but not parental CHO cells. 68 clones were selected for molecular cloning. Based on unique CDR3 sequences from the heavy chain variable domain, 35 antibodies from 13 families were confirmed by binding in IL1RAP positive cell lines EOL1 and Karpas 299 (see Table 8) by flow cytometry (MACSQuant® www.miltenybiotec.com).

Experiment [2] relates to DMS79. The experiment in a line: Flow cytometry binding to endogenous cell line DMS79. In kind it is cell-based. On the set-up: key: (−): No binding; (+): Weak binding; (++): Moderate binding; (+++): Strong binding. Particulars: primary antibody 1 ug/ml. How it is done: as §1
On the technique in general: A flow cytometer gives signals particle by particle.

B1: 39A9_28A4: human anti-IL1RAP antibody, VH SEQ ID NO: 130, VL SEQ ID NO: 134 (antibody, V domains shown)
VH: QVQLVESGGGVVQPGRSLRLSCAASGFTLSGYGMHWVRQAPGKGLEWVAVIWYDGSNKYYADSVKGRFTISRDNSKNMLFLQMNSLRAEDTAVYYCVRENGFGSGWFFDYWGQGNLVTVSS
VL: EIVMTQSPATLSVSPGERATLSCRTSQSVSRDLAWYQQKPGQAPRLLIYGASTRATGIPVRFSGSGSGTEFTLTISSLQSEDFAVYYCQQYNNWPPWTFGQGTKLEIK
Turning to B1, in experiment [1], the “binding to EOL-1 by flow cytometry” value is “(+++)”. Also, the “binding to DMS79 by flow cytometry” value in experiment [2] is reported as “(−)”.
